Laboratory results taken from FireProtDB (doi:10.1021/bi00091a031).
Several values for one entry are separate records, joined by “and”; a condition that tells them apart may be missing. Identical values can stand only once.

Details: Homo sapiens; pH 8; 25 °C; GdnHCl; CD; Tris 10 mM; reversible: yes

Substance: Insulin wild type (sequence not shown)
- denaturant m value: 0.86 kcal/mol/M and 0.83 kcal/mol/M
- denaturant midpoint (higher = more stable): 4.37 M and 4.5 M and 4.67 M
- unfolding free energy: 3.76 kcal/mol and 3.86 kcal/mol
